In PMC4336329 (PLoS ONE, 2015):
Among all 310,000 compounds or so, about 2,200 (0.71%) showed an effect of 50% or more. The effect is printed as a negative number. Some of the results follow.

target: human ether-à-go-go-related gene (hERG) potassium channel (human, UniProt Q12809); experiment: primary screen, population patch clamp on CHO cells stably expressing hERG
Sequence (Q12809 whole entry, looked up): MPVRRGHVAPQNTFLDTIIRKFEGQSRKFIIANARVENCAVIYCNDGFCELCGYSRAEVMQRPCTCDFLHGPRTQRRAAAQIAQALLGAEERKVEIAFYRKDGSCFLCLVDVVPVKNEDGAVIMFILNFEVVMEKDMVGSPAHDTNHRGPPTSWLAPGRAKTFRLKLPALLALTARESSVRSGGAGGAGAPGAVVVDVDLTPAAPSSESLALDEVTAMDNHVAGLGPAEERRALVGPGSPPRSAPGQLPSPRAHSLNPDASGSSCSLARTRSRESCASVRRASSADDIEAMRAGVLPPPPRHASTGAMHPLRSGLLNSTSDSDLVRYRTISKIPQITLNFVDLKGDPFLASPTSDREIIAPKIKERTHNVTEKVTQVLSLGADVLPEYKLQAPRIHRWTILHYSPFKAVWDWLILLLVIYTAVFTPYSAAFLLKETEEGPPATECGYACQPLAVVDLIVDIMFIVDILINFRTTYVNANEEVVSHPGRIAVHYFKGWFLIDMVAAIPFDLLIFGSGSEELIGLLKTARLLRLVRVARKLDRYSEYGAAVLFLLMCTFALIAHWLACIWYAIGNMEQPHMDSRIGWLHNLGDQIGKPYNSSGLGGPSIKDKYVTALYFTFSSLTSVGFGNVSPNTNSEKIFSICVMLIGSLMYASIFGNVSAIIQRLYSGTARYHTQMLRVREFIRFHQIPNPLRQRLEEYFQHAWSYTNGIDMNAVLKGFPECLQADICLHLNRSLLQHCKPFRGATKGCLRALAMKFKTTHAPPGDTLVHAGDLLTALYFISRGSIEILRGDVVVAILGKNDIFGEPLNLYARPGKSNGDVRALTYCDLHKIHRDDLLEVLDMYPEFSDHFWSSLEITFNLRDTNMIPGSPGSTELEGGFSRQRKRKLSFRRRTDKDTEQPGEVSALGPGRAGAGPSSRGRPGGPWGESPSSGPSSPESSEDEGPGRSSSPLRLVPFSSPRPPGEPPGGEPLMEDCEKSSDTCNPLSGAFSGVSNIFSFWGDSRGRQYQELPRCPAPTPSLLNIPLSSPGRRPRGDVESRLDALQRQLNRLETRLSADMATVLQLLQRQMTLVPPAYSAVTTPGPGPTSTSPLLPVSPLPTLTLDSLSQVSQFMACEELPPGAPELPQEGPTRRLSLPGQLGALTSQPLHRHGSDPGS

Row | Structure (SMILES) | hERG current change (%, negative = inhibition) at 1uM [%]
1 | COc1ccc(Cn2nnnc2C(c2cccs2)N2CCN(c3ccc([N+](=O)[O-])cc3)CC2)cc1 (centres unmarked) | 10.5
2 | Cc1noc(C)c1CSCC(=O)N(C)CC(=O)Nc1ccc(Cl)c(C(F)(F)F)c1 | -7.81
3 | O=c1c2cc(-c3ccccc3)sc2ncn1/N=C/c1ccco1 | 15.3
4 | CCN(CC)S(=O)(=O)c1cc(NC(=O)Cc2n[nH]c(=O)c3ccccc23)ccc1C | 11.6
5 | CCN(CCNS(=O)(=O)c1ccc2[nH]c(=O)sc2c1)c1ccccc1 | -1.68
6 | CSCCC(NC(=O)OCc1ccccc1)C(=O)NCc1cccnc1 (centres unmarked) | 9.52
7 | Cc1ccccc1Nc1cc(=O)oc2ccccc12 | 2.3
8 | COc1ccc(C(=O)CN2C(=O)c3ccccc3C2=O)c(OC)c1C | 11.3
9 | Cc1cccc(CC(=O)Nc2ccon2)c1 | 12.8
10 | COc1ccc(CCNC(=O)CCNC(=O)N2CC(=O)Nc3ccccc32)cc1OC | 21
11 | Cn1cc(CC(=O)NCCCN2CCOCC2)c2ccccc21 | 15.6
12 | O=C(C/C(=N/O)c1ccccc1O)C(F)F | 9.32
13 | O=C(CSc1nc2ncc(Cl)cc2[nH]1)NCC(=O)Nc1ccc(F)c(F)c1F | 5.25
14 | Cc1ccc(S(=O)(=O)N2CCOCC2)cc1NC(=O)Cn1ccsc1=N.Cl | 1.95
15 | O=[N+]([O-])c1ccc(CS(=O)(=O)c2ccc(Cl)cc2)cc1 | 4.47
16 | O=C(O)c1cccc(S(=O)(=O)N2CCN(c3ccccn3)CC2)c1 | 13.4
17 | COc1ccc(-c2nnc(SCC(=O)Nc3nncs3)o2)cc1 | 17
18 | COc1ccc(/C=C2\SC(=O)NC2=S)cc1OC | 0.936
19 | Cl.c1ccc(-c2csc(N3CCOCC3)n2)cc1 | 9.81
20 | CCOC(=O)c1c(-c2ccccc2)cn2c(C)cc(C)nc12 | 11.3
21 | C=CCN1CN=C(NS(=O)(=O)c2ccc(NC(C)=O)cc2)NC1 | 9.29
22 | CCCCNC(=S)N1CCN(c2ccccc2Cl)CC1 | 8.55
23 | CCC(c1nnnn1CCOC)N1CCN(c2nc3ccccc3s2)CC1 (centres unmarked) | -0.352

Row | Structure (SMILES) | hERG current change (%, negative = inhibition) at 1uM [%]
24 | COc1ccc(CNc2ncccn2)cc1OC | 10.5
25 | CCOCCc1nnc(NC(=O)C2CC(=O)N(CCc3ccc(F)cc3)C2)s1 (centres unmarked) | 12.2
26 | COc1ccc(-n2c(SCC#N)nc3ccccc3c2=O)cc1 | 13.4
27 | O=C1c2ccccc2C(=O)N1CCCc1nc(-c2ccccn2)no1 | -4.38
28 | N#Cc1nc(-c2ccccc2)oc1N1CCCCC1 | 5.29
29 | O=C(CSc1nc2ccc(N3CCOCC3)cc2c(=O)n1CCc1ccccc1)NCC1CCCO1 (centres unmarked) | -10.6
30 | Cc1cc(C)c2c(N)c(C(=O)c3ccc(Br)cc3)oc2n1 | 12.1
31 | CC(=O)N/C(=N/c1nc(C)cc(C)n1)Nc1cccc(C)c1C | 8.41
32 | CC(C)c1nnc(NC(=O)CCC(=O)NC2CCCc3ccccc32)s1 (centres unmarked) | 13.5
33 | CCN(CC)c1ccc(S(=O)(=O)N2CCOCC2)cc1NC(=O)CSc1n[nH]c(N)n1 | 2.8
34 | COc1ccc(CCNC(=O)C(=O)c2cn(CC(=O)N3CCOCC3)c3ccccc23)cc1OC | 5.94
35 | O=C(CS(=O)(=O)c1c[nH]c2ccccc12)Nc1ccc2c(c1)OCCO2 | 7.63
36 | CCOc1ccc(NC(=O)Cn2cc(C(=O)C3CC3)c3ccccc32)cc1 | 10.4
37 | Cc1nnc(-c2ccco2)c2cn(-c3cccc(Br)c3)nc12 | 9.82
38 | C=CCC(C=C)S(=O)(=O)c1ccc(C)cc1 (centres unmarked) | 4.84
39 | CC(C)c1ccc(/C=C/C(=O)Nc2ccc(CN3CCOCC3)cc2)cc1 | -1.74
40 | COc1ccc(OC(=O)COc2ccc(Cl)cc2)cc1 | 11.7
41 | O=C(NCc1cc2ccccc2[nH]1)C1CCC(=O)N(CCCN2CCCC2=O)C1 (centres unmarked) | 10.1
42 | O=C(COC(=O)/C=C/c1ccc([N+](=O)[O-])cc1)NCC1CCCO1 (centres unmarked) | 12.3
43 | Cc1cc(C(=O)COc2ccccc2[N+](=O)[O-])c(C)n1C1CC1 | 14.5
44 | CCOC(=O)C1C(=O)NC(N2CCN(c3ccccc3)CC2)=NC1c1ccco1 (centres unmarked) | 7.35
45 | O=C(CSc1ccc(-c2ccc(Br)cc2)nn1)NC1CCCC1 | 12.4
46 | CCCN1CCN(C(=O)c2ccc(-c3ccc([N+](=O)[O-])cc3)o2)CC1 | -70.1

Row | Structure (SMILES) | hERG current change (%, negative = inhibition) at 1uM [%]
47 | CN(c1ccc(C(=O)NCc2ccco2)cc1)S(C)(=O)=O | 7.2
48 | O=C(CCn1c(SCC(=O)NCc2ccco2)nc2ccccc2c1=O)NCCc1ccccc1 | -9.69
49 | COc1ccc2cc(C(=O)NCc3ccco3)c(=O)oc2c1 | 21.6
50 | Cc1ccc(S(=O)(=O)/N=C(/Nc2ccc3[nH]c(=O)[nH]c3c2)c2ccc(F)cc2)cc1 | 3.51
51 | Cc1noc(C)c1-c1nc(CS(=O)(=O)c2ccccc2)no1 | 2.56
52 | CC(=O)C1=C(O)C(=O)N(CCc2c[nH]c3ccccc23)C1c1ccc(C)cc1 (centres unmarked) | 19.7
53 | COc1ccc(CCNC(=O)CN2C(=O)c3cccc4cccc(c34)C2=O)cc1OC | 8.16
54 | COc1ccc(C)cc1NC(=S)NNC(=O)c1ccccc1Cl | 6.92
55 | O=C(CSc1ncc(-c2ccccc2)n1-c1ccccc1)NCc1ccco1 | 6.85
56 | COc1ccc(CNC(=O)C(c2cccs2)N(Cc2ccco2)C(=O)Cc2cccs2)cc1 (centres unmarked) | 11.2
57 | N#Cc1ccccc1CN1C(=O)NC(Cc2c[nH]c3ccccc23)C1=O (centres unmarked) | 4.91
58 | CCC(C)Oc1ccccc1C1CC(=O)NC2=C1C(=O)CCC2 (centres unmarked) | 8.45
59 | N#Cc1cccnc1Nc1cccc(Cl)c1 | 5.52
60 | Cn1nc(-c2ccc(C(=O)NCCO)cc2)c2ccccc2c1=O | 22.3
61 | Cc1nc2nc(C)c(CCC(=O)N3CCC4(CC3)OCCO4)c(C)n2n1 | -1.79
62 | Clc1ccc(CNc2ccc(CNc3ncn[nH]3)cc2)cc1 | -3.33
63 | Cc1cc(NC(=O)COC(=O)c2nccnc2N)n(-c2ccccc2)n1 | 17.7
64 | CS(=O)(=O)c1ccc(Cl)c(NC(=O)CSc2nncn2-c2ccccc2)c1 | -1.92
65 | CCOc1cc(C)nc(NCc2ccccc2)n1 | 5.36
66 | CCc1ccc(CNC(=O)C2Cc3cc(S(=O)(=O)N4CCCC4)ccc3N2C(C)=O)cc1 (centres unmarked) | 2.93
67 | CC(C)n1nc(C(=O)OCC(=O)c2c[nH]c3ccccc23)c2ccccc2c1=O | -1.32
68 | COc1ccc(OC)c(CNC(=O)Cn2nc(C)c3c(C)n(-c4ccc(C)cc4)nc3c2=O)c1 | 13.1
69 | N#Cc1ccccc1OCC(=O)OCCCOC(=O)COc1ccccc1C#N | 15.7

Row | Structure (SMILES) | hERG current change (%, negative = inhibition) at 1uM [%]
70 | COC(=O)C1=C(C)NC(=O)C1(Nc1nccs1)C(F)(F)F (centres unmarked) | 8.37
71 | O=C(c1ccccc1C(=O)N1CCN(c2ccc(F)cc2)CC1)N1CCN(c2ccc(F)cc2)CC1 | -48.4
72 | Cc1ccc(-n2c(-c3cccs3)nc3nc4ccccc4nc32)cc1 | 10.5
73 | O=c1[nH]c(O)c(C=Nc2ccc(Cl)c(C(F)(F)F)c2)c(=O)[nH]1 | 9.83
74 | CC(C)(C)c1cc(NC(=O)COC(=O)c2ccc(O)cc2O)n(-c2ccccc2)n1 | -34.6
75 | COCCCNC(=O)c1cc2c(=O)n3cc(C)ccc3nc2nc1NCC1CCCO1 (centres unmarked) | -26.6
76 | COCCCNc1nc(N)c([N+](=O)[O-])c(NCc2ccccc2)n1 | 13
77 | COCCOCC(O)CN1CCN(c2ccc(C)cc2)CC1.O=C(O)C(=O)O (centres unmarked) | -1.32
78 | CC(C)C(=O)Nc1ccc(-c2nnc(-c3ccccc3)o2)cc1 | 5.51
79 | COc1ccc(Cl)c2sc(N(CCN(C)C)C(=O)CCS(=O)(=O)c3ccc(C)cc3)nc12.Cl | 2.98
80 | O=C(c1ccc(Cl)cc1Cl)N1CCSCC1 | 11.2
81 | Cc1cc(OCCN2CCCC2)ccc1C(C)C | 4.68
82 | N#C/C(=C\c1coc2ccccc2c1=O)C(N)=S | 13.5
83 | Cc1cc(/C=C2\C(=O)NC(=O)N(c3ccc(F)cc3)C2=O)c(C)n1-c1ccc(C(=O)O)cc1 | 13.8
84 | CCOc1ccc(S(=O)(=O)NC2CCCC2)cc1C | 17.9
85 | CCN(CC(=O)NCc1cccs1)C(=O)/C=C/c1cccc(Cl)c1Cl | 12.4
86 | CCc1ccc(-c2nc(CN3CCC(C(=O)N4CCN(c5ccccc5)CC4)CC3)c(C)o2)cc1 | -5.62
87 | Cc1oc(-c2ccccc2F)nc1CSCC(=O)NC1CCCC1 | 18.6
88 | CCNS(=O)(=O)c1ccc(CCC(N)=O)cc1 | 13.5
89 | Cc1nc2c(ccc3nc(NC(=O)Cc4ccccc4)sc32)s1 | 7.37
